Experimental data reported in PubChem BioAssay AID602313 (National Center for Advancing Translational Sciences (NCATS), 2012).
Hit rate of the full screen: of about 390,000 compounds, about 760 (0.19%) were called active. Another 3% or so got no clear call; they are omitted. Calls follow the shape of the dose curve; as a rule, active = well fitted inhibition curve with a large enough effect; inconclusive = small, poorly fitted or top-dose-only effect; inactive = flat fitted curve, though single readings scatter. The entries are a selection whose mix differs from that of the whole data set.

Test: qHTS for Inhibitors of Vif-A3F Interactions: qHTS; also: nearly all actives have a fitted effect of over 65% in size; as to activity, negative = active: % of control where 0% means no effect
Conditions: HeLa A3F-eYFP + Vif (tagged APOBEC3F with the HIV-1 protein that degrades it), YFP fluorescence increase; series mostly up to 46.1 µM; activity, negative = active: at the top concentration
Summary of the method: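 HeLa cells stably expressing Vif plus C-terminally eYFP-tagged A3F were seeded, incubated overnight at 37 deg C, dosed with compound, incubated overnight again at 37 deg C. Yellow fluorescence (Ex 488/Em 500-530) reported blocked Vif-mediated A3F-eYFP degradation.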
Potency is read from the fitted curve at half-maximal effect.

SMILES	activity, negative = active	Potency
CCOC(=O)c1cc2c(=O)n3ccccc3nc2n(Cc2ccco2)c1=NC(=O)c1ccccc1OC	inactive: 1.92%	
Nc1c(C(=O)NCc2ccc3c(c2)OCO3)nnn1CC(=O)Nc1ccc(Br)cc1	inactive: -20.2%	
CCCCCCSc1ccc([C@@H]2[C@H]3C(=O)N(C)C(=O)[C@H]3[C@]3(C(=O)OC)CCCCN23)cc1	inactive: -9.6%	
CC1=C(n2nnc3ccccc32)C(c2ccccc2)C(C#N)=C(N)O1 (stereo unspecified)		active: 25.1 µM
CCCCCCN1C[C@H](n2cc(-c3ccc(F)cc3)nn2)[C@@H](O)C[C@@H]1c1ccccc1	inactive: -8.66%	
COc1ccc(NC(=O)C(CC(C)C)NC(=O)C2CCCCC2)c(OC)c1 (stereo unspecified)	inactive: -9.65%	
O=C(Nc1cccc(Cl)c1Cl)c1cc(S(=O)(=O)NCCc2ccccc2)ccc1F	inactive: -29%	
CCOC(=O)C1=C(C)NC(C)=C(C(=O)OCC)C1C(=O)OCC(=O)N1c2ccccc2CC1C (stereo unspecified)	inactive: 1.41%	
O=C(CSc1nc2c([nH]c3ccccc32)c(=O)n1-c1cccc(Cl)c1)N1CCOCC1	inactive: -11.2%	
COc1cc(NC(=O)c2cncc(-c3ccc(C#N)cc3)c2)cc(C(=O)Nc2cccc(C(F)(F)F)c2)c1	inactive: -1.62%	
O=C(Nc1cccc(F)c1)/C(=C/c1ccco1)NC(=O)c1ccco1	inactive: 2.63%	
Cc1ccoc1C(=O)N1CCCCC1C(=O)O (stereo unspecified)	inactive: 15.1%	
CCCC(=O)NC(c1ccc(OC)cc1)c1ccc2cccnc2c1O (stereo unspecified)		active: 11.2 µM
C/C(=N\Nc1nc(C)cc(-c2ccccc2)n1)c1ccc(F)cc1		active: 20 µM
CC1=C(C(=O)OCc2ccccc2)C(c2cccnc2)c2c(n(C)c(=O)n(C)c2=O)N1 (stereo unspecified)	inactive: -20.1%	
CCOc1ccc(/C=C2\CCc3ccccc3C2=O)cc1	inactive: 33.7%	
COc1ccc(-c2cc(C)no2)cc1S(=O)(=O)N1CCOc2ccc(Cl)cc21	inactive: 3.1%	
CC1=CC(C)(C)NC(=S)N1c1cccc(C)c1	inactive: 2.62%	
CCOC(=O)/C=C1\SCC(=O)N1CC(=O)Nc1ccccc1OC(F)F	inactive: 2.46%	
O=C1C(=Cc2ccccc2[N+](=O)[O-])Cc2ccccc21		active: 12.6 µM
O=C(NCCN1C(=O)S/C(=C\c2cccnc2)C1=O)c1ccc(S(=O)(=O)N2CCCC2)cc1	inactive: 6.8%	
CNC(=O)c1sc(N2N=C3/C(=C\c4ccccc4)CCCC3C2c2ccccc2)nc1C (stereo unspecified)	inactive: -9.29%	
OCCN1CCN(CC(O)COc2ccc3ccccc3c2)CC1 (stereo unspecified)	inactive: -0.267%	
CC(=O)Nc1ccc(S(=O)(=O)NC2(C(F)(F)F)NC(=O)N(c3ccc(C)cc3)C2=O)cc1 (stereo unspecified)	inactive: -13.7%	
N#C/C(=C\c1ccc([N+](=O)[O-])cc1)C(=O)Nc1ccccc1O	inactive: -23.2%	
CCOC(=O)/C(C#N)=N\Nc1cc(Cl)ccc1OC		active: 10 µM
